Test results: PubChem BioAssay AID588855 (National Center for Advancing Translational Sciences (NCATS), 2011)
Hit rate of the full screen: of about 410,000 compounds, about 5,000 (1.2%) were called active. Inconclusive results, whose numbers are uncertain, are shown with a selection of clear calls. Calls follow the shape of the dose curve; as a rule, active = well fitted inhibition curve with a large enough effect; inconclusive = small, poorly fitted or top-dose-only effect; inactive = no such curve, though single readings can be large or run the other way. Potencies beside an inconclusive call are fits to weak or partial responses and may not hold up.
Potency is read from the fitted curve at half-maximal effect; tags tell the direction and shape of the fitted curve.

Assay: qHTS for Inhibitors of TGF-b; also: nearly all actives have a fitted effect of over 65% in size
Settings: HepG2 CAGA-GFP TGF-b/SMAD3 reporter, GFP fluorescence, 18 h, TGF-beta stimulated, 500 pg/mL final; series mostly up to 46.1 µM
In short: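 HEPG2 CAGA-GFP cells (1000/well, DMEM with 1% FBS) were pre-incubated 2 h at 37 degrees C, given compound by pin tool, then stimulated with TGF-beta at 500 pg/mL final for 18 h before per-cell GFP fluorescence imaging.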
With `COc1ccc(C2CCCCC2SCC(=O)O)cc1OC` (stereo not drawn) the Potency was “inactive”.
In the case of `Cc1cc(-c2ccc(S(=O)(=O)Nc3ccc(Br)c(C)c3)s2)on1`, the Potency is reported as active: 12.6 µM.
In the case of `COc1ccc(C(CNC(=O)c2cc(=O)[nH]c3ccccc23)N2CCCC2)cc1` (stereo not drawn), the Potency is reported as inconclusive: 3.16 µM [inhibitor, partial curve].
In the case of `O=C(NCc1nnc(SCc2ccc(C(F)(F)F)cc2)n1-c1ccccc1)C12CC3CC(CC(C3)C1)C2`, the Potency is reported as inconclusive: 35.5 µM [inhibitor, single point].
With `COc1ccc(OC)c(NC(=O)COC(=O)CCc2ccc(S(=O)(=O)N3CCOCC3)cc2)c1` the Potency was “inactive”.
For `COc1ccc(NC(=O)COc2ccccc2)cc1NC(=O)c1ccco1`, the Potency was inconclusive: 0.112 µM [inhibitor, full curve, poor fit].
In the case of `Cc1ccccc1C(=O)NNC(=S)Nc1cccc(C(F)(F)F)c1`, the Potency is reported as inconclusive: 8.91 µM [inhibitor, partial curve, poor fit].
For `Oc1ccc(-c2csc(Nc3ccc4c(c3)OCO4)n2)c(O)c1`, the Potency was inconclusive: 22.4 µM [inhibitor, single point].
In the case of `COc1ccc(CN(C)C(=O)c2ccc(COc3ccccc3)cc2)c(OC)c1`, the Potency is reported as inconclusive: 35.5 µM [inhibitor, single point].
For `CC(C)CCNC(=O)C1CCN(Cc2cccc(OCc3ccccc3)c2)CC1`, the Potency was inconclusive: 35.5 µM [inhibitor, single point].
In the case of `CCc1ccc2[nH]c(=O)c(CN(CCN(CC)CC)C(=O)NC3CCCCC3)cc2c1`, the Potency is reported as inconclusive: 22.4 µM [inhibitor, single point].
In the case of `COc1ccc(CCNc2ccc(C(CC(N)=O)NC(=O)c3ccc(Br)cc3)cc2[N+](=O)[O-])cc1` (stereo not drawn), the Potency is reported as inconclusive: 35.5 µM [inhibitor, single point].
With `O=C(CSc1nnc(NC(=O)C2CC(=O)N(c3ccc(F)cc3)C2)s1)NCc1ccco1` (stereo not drawn) the Potency was “inactive”.
In the case of `CCN(CC)S(=O)(=O)c1ccc2oc(C(=O)Nc3ccc(OC)cc3OC)c(C)c2c1`, the Potency is reported as inconclusive: 35.5 µM [inhibitor, single point].
With `Cc1cc(N2CCN(C(=O)c3ccco3)CC2)n2nc(-c3cccc(Cl)c3)cc2n1` the Potency was inconclusive: 22.4 µM [inhibitor, single point].
With `COc1ccc(/C=N/NC(=O)CCc2n[nH]c(=O)[nH]c2=O)cc1O` the Potency was inconclusive: 2.51 µM [inhibitor, full curve].
For `COc1ccc(N(Cc2cccs2)C(=O)COc2cc(C)c(Cl)c(C)c2)cc1`, the Potency was active: 15.8 µM.
With `CCOC(=O)/C(=N\Nc1cc(Cl)ccc1Cl)N1CCN(CC)CC1` the Potency was “inactive”.
In the case of `COc1ccc(C(=O)/C=C/C(=O)N(CC(=O)NC2CCCCC2)CC2CCCO2)c(O)c1` (stereo not drawn), the Potency is reported as inconclusive: 11.2 µM [inhibitor, partial curve, poor fit].
For `COc1ccc2c(CNCCc3ccccc3)c(C(=O)O)n(Cc3cccc(F)c3)c2c1`, the Potency was inconclusive: 8.91 µM [inhibitor, partial curve, poor fit].
In the case of `Clc1cccc(-c2nc3c4ccccc4ccn3c2Cc2ccsc2)c1`, the Potency is reported as inconclusive: 35.5 µM [inhibitor, single point].
In the case of `O=S(=O)(c1ccc2nc(N3CCN(c4ccccc4)CC3)ccc2c1)N1CCCCC1`, the Potency is reported as “inactive”.
With `Cc1ccccc1Nc1nc(Nc2ccccc2C)nc(SC2=NCCS2)n1` the Potency was inconclusive: 11.2 µM [inhibitor, partial curve, poor fit].
In the case of `Cc1ccc(Cl)c2sc(N3CCN(C(=O)c4ccco4)CC3)nc12`, the Potency is reported as inconclusive: 35.5 µM [inhibitor, single point].
In the case of `O=[N+]([O-])c1ccc(-c2ccc(C=Nc3cccc4ccccc34)o2)cc1`, the Potency is reported as “inactive”.
For `Nc1nc2ccc([N+](=O)[O-])cc2[nH]1`, the Potency was “inactive”.
With `C=CCn1c(Cc2csc(N)n2)nnc1SCC(=O)Nc1ccc(C(=O)OCC)cc1` the Potency was inconclusive: 15.8 µM [inhibitor, single point].
In the case of `Cc1ccc(C(=O)NC(c2ccccc2)C(Cl)Cl)cc1` (stereo not drawn), the Potency is reported as inconclusive: 25.1 µM [inhibitor, single point].
For `O=C(Nc1ccc(Cl)cc1)N(Cc1nc2ccccc2c(=O)[nH]1)Cc1cccs1`, the Potency was active: 10 µM.
In the case of `NC(=O)CSc1nnc(-c2ccccn2)n1Cc1ccco1`, the Potency is reported as “inactive”.
In the case of `COc1ccc(F)cc1C(=O)C1CCCN(Cc2cnc(N3CCCC3)s2)C1` (stereo not drawn), the Potency is reported as “inactive”.
With `CCn1c(/C=C/N(C)c2ccccc2)[n+](CC)c2ccc(Cl)cc21` the Potency was inconclusive: 35.5 µM [inhibitor, single point].
For `CCOC(=O)C1CCN(C(=O)c2oc3ccc(S(=O)(=O)N4CC(C)CC(C)C4)cc3c2C)CC1` (stereo not drawn), the Potency was “inactive”.
With `COc1ccc2nc(NC(=O)Nc3cccc4ccccc34)sc2c1` the Potency was “inactive”.
In the case of `Cc1ccc(C(=O)NNC(=O)CSc2nnc(C3CC3)n2C)cc1`, the Potency is reported as “inactive”.
In the case of `O=C(N/N=C/c1ccc(Cl)cc1)c1n[nH]c2c1CCCC2`, the Potency is reported as inconclusive: 0.891 µM [inhibitor, partial curve, poor fit].
For `CC(=O)c1ccc(N2CCN(C(=O)c3ccc(Cn4c(=O)[nH]c5ccccc5c4=O)cc3)CC2)cc1`, the Potency was “inactive”.
With `O=C(C1CCN(S(=O)(=O)N2CCC3(CC2)OCCO3)CC1)N1CCc2ccccc2C1` the Potency was inconclusive: 14.1 µM [inhibitor, single point].
For `Cc1cc(C(C#N)c2cccc(Cl)c2)n2ncnc2n1` (stereo not drawn), the Potency was inconclusive: 35.5 µM [inhibitor, single point].
In the case of `Cc1ccc(NC(=O)CN(C)C(=O)c2ccc3[nH]c4c(c3c2)CC(C)CC4)cc1` (stereo not drawn), the Potency is reported as inconclusive: 35.5 µM [inhibitor, single point].
For `COc1ccc(S(=O)(=O)NCc2ccc(C(=O)NCc3ccccc3)cc2)cc1`, the Potency was “inactive”.
For `Cc1ccc(-n2nc3c(=O)n(C(C)C(=O)NCc4ccccc4Cl)nc(C)c3c2C)cc1` (stereo not drawn), the Potency was inconclusive: 28.2 µM [inhibitor, single point].
For `C/C(=N\OCC(=O)OC(C)C(=O)Nc1ccc(C)c(S(=O)(=O)N2CCOCC2)c1)c1ccc2c(c1)OCO2` (stereo not drawn), the Potency was “inactive”.
In the case of `CCOC(=O)c1oc2cc(O)cc(O)c2c(=O)c1OCc1ccccc1`, the Potency is reported as inconclusive: 2.82 µM [inhibitor, partial curve, poor fit].
With `CCN(CC)c1ccc(N2C(=O)CSC2=S)cc1` the Potency was inconclusive: 35.5 µM [inhibitor, single point].
With `Cc1ccc(-n2cccn2)c(CN2CCC(CO)(CCc3ccccc3)CC2)c1` the Potency was inconclusive: 6.31 µM [inhibitor, single point].
In the case of `CCN1C(=O)C(CC(=O)Nc2ccc(OC)cc2)N(CCN2CCOCC2)C1=S` (stereo not drawn), the Potency is reported as “inactive”.
For `CN(C)/C=C(\C#N)S(=O)(=O)c1ccccc1`, the Potency was inconclusive: 5.01 µM [inhibitor, single point].
For `COc1ccc(Nc2cc(C)c3cc(NC(=O)c4cc(OC)cc(OC)c4)ccc3n2)cc1`, the Potency was inconclusive: 35.5 µM [inhibitor, single point].
In the case of `C=CCSC1=N/C(=C\c2ccc3c(c2)OCO3)C(=O)S1`, the Potency is reported as inconclusive: 17.8 µM [inhibitor, single point].
In the case of `CCn1c(-c2sc(-c3ccccc3)nc2C)n[nH]c1=S`, the Potency is reported as “inactive”.
For `CCOC(=O)C1=NN(C(=O)Cc2ccccc2)C(O)(c2ccc(Cl)cc2)C1` (stereo not drawn), the Potency was “inactive”.
With `COC(=O)c1ccccc1NC(=O)Cn1c(=O)n(CCCC(=O)NCCc2ccc(OC)c(OC)c2)c(=O)c2ccccc21` the Potency was “inactive”.
For `COC(C[C@@H](O)C[C@H](O)[C@@H](C)OCc1ccccc1)OC`, the Potency was inconclusive: 0.251 µM [inhibitor, full curve, poor fit].
In the case of `COc1ccc2c(c1)C=C(C(=O)NCc1cc(Br)ccc1OC)CO2`, the Potency is reported as inconclusive: 11.2 µM [inhibitor, partial curve, poor fit].
For `CC1Cc2ccccc2N1C(=O)CSc1nnc(-c2ccc(S(=O)(=O)N3CCOCC3)cc2)n1C` (stereo not drawn), the Potency was inconclusive: 20 µM [inhibitor, partial curve, poor fit].
With `COc1ccc(NS(=O)(=O)c2ccc(NC(C)=O)cc2)c(OC)c1` the Potency was inconclusive: 6.31 µM [inhibitor, single point].
For `Cc1cccc(C(=O)Nc2ccc3oc(-c4ccncc4)nc3c2)c1`, the Potency was “inactive”.
For `COc1ccc(NC2CCCN(Cc3cccc4cnccc34)C2)cc1OC` (stereo not drawn), the Potency was inconclusive: 35.5 µM [inhibitor, single point].
In the case of `CCCCOc1ccccc1C1NC(=O)CCC1[N+](=O)[O-]` (stereo not drawn), the Potency is reported as inconclusive: 3.55 µM [inhibitor, partial curve, poor fit].
With `CCOC(=O)C1CCCN(S(=O)(=O)c2ccc3[nH]c(=O)oc3c2)C1` (stereo not drawn) the Potency was inconclusive: 20 µM [inhibitor, partial curve, poor fit].
In the case of `COc1ccc(-c2nc3scc(CCNC(=O)c4cc(OC)cc(OC)c4)n3n2)cc1`, the Potency is reported as “inactive”.
In the case of `CCCCC(=O)N(C)c1c(CC)nc2c(OCCOC)cccn12`, the Potency is reported as inconclusive: 6.31 µM [inhibitor, single point].
With `CCOc1ccc2nc(SCC(=O)N(CC(C)C)c3c(N)n(Cc4ccccc4)c(=O)[nH]c3=O)[nH]c2c1` the Potency was inconclusive: 0.562 µM [inhibitor, full curve, poor fit].
With `Cc1ccc(C)c(OCc2cc(C(=O)N3CCc4sccc4C3)no2)c1` the Potency was “inactive”.
In the case of `CCn1c(SCC(=O)Nc2ccc(OC)c(OC)c2)nnc1-c1cccs1`, the Potency is reported as “inactive”.
In the case of `Cc1cc(NC(=O)CSCC(=O)Nc2cccc(S(=O)(=O)N3CCCCCC3)c2)no1`, the Potency is reported as inconclusive: 0.631 µM [inhibitor, partial curve, poor fit].
In the case of `COc1ccc(C(=O)c2coc3ccc(OC(C)=O)cc23)cc1`, the Potency is reported as inconclusive: 3.98 µM [inhibitor, partial curve, poor fit].
